Laboratory results reported in PMC4336329 (PLoS ONE, 2015).
In all, about 310,000 compounds went through this assay and about 14,000 (4.5%) showed an effect of 50% or more. The effect is printed as a negative number. The list shows a part of the results.

Each compound was assayed against human ether-à-go-go-related gene (hERG) potassium channel (human, UniProt Q12809) (assay: primary screen, population patch clamp on CHO cells stably expressing hERG).
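Note: peak tail current of the secondary pulse compared with the same well before compound.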

human ether-à-go-go-related gene (hERG) potassium channel, sequence (Q12809 whole entry, looked up): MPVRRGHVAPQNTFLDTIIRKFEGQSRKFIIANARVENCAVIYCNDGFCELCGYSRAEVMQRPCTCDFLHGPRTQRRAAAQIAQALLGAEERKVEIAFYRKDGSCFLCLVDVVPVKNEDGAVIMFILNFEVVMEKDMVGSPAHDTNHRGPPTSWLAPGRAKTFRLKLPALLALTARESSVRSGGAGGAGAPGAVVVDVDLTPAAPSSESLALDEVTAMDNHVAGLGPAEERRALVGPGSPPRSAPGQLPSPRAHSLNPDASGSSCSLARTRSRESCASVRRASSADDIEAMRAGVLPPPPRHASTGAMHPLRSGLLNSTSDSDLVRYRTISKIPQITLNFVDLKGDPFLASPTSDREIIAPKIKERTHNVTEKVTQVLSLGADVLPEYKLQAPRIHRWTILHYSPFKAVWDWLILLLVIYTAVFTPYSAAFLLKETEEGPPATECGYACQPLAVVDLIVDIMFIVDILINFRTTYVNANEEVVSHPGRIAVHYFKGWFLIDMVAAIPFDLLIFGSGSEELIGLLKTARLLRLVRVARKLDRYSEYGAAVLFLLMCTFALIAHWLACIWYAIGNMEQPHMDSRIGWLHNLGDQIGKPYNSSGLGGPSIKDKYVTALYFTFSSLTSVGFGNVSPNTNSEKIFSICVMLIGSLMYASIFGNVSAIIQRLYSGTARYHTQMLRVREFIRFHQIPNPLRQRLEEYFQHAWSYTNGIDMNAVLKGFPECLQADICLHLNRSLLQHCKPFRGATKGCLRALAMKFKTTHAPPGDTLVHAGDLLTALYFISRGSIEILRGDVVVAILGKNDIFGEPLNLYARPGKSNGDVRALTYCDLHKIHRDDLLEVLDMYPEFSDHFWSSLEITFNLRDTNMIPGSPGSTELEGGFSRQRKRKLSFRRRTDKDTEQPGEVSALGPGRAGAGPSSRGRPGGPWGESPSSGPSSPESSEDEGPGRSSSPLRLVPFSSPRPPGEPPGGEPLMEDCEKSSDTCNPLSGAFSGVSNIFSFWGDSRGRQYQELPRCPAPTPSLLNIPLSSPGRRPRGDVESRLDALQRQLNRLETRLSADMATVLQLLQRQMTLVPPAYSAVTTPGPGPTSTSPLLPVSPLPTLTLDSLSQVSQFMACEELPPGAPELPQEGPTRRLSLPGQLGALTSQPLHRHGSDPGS

| SMILES | hERG current change (%, negative = inhibition) at 10uM [%] |
| --- | --- |
| CC(=O)c1ccc(OCC(C)C)c(Cc2c(O)nc(N)[nH]c2=O)c1 | -2.07 |
| O=C(O)CNc1ccccc1C(=O)O | -4.04 |
| CC(C)c1ccc(S(=O)(=O)N2CCC(C(=O)NCC3(N(C)C)CCCCC3)CC2)cc1 | -54.4 |
| CCN(CC)C(=O)Cn1cc(SCC(=O)NC)c2ccccc21 | -9.06 |
| O=C(c1cc2n(n1)C(C(F)(F)F)CC(c1ccc(F)cc1)N2)N1CCCC1 (stereo not drawn) | 10.4 |
| COC(=O)CN(C#N)c1nc(C)cc(C)n1 | -1.38 |
| Cc1cccc(/C=C2\CCC(C3CCCC3)C2=O)c1 (stereo not drawn) | -7.29 |
| Cc1cccc(CN2C3=NCCCN3c3ccccc32)c1.Cl | -57.4 |
| CCc1cc(=O)oc2cc(C)cc(OCC(=O)C(C)(C)C)c12 | 2.5 |
| COC(=O)/C=C1\OC(c2ccccc2)=CC1=O | -5.83 |
| CN1CCC2(CC1)C(C#N)=C(N)NC(S)=C2C#N | 12.9 |
| Cc1ccccc1OCCOC(=O)c1cc(S(=O)(=O)N2CCCCC2)ccc1N1CCOCC1 | -8.34 |
| Cc1ccccc1C(=O)N1CCN(c2ccc(NC(=O)c3cccnc3Cl)cc2)CC1 | 13 |
| CCOc1ccc(NC(=O)c2ccc(Cn3nc(C)cc3C)o2)cc1 | -34.5 |
| COc1ccc(C(=O)C[N+]2(C)CCOCC2)cc1.[I-] | 8.6 |
| CCOCCCNC(=S)N1CCN(c2nc(-c3ccc(F)cc3)cs2)CC1 | -16.3 |
| O=S(=O)(c1cccc2cccnc12)N1CCc2ccccc21 | 2.89 |
| CCOC(=O)NC1(C(F)(F)F)C(=O)N(Cc2ccccn2)C2=C1C(=O)CC(C)(C)C2 (stereo not drawn) | 20.3 |
| COc1cc(OC)cc(-c2nc3cc(C)ccc3o2)c1 | -18 |

| SMILES | hERG current change (%, negative = inhibition) at 10uM [%] |
| --- | --- |
| CCCCn1c(N)c(N(CCOC)C(=O)C2CC(=O)N(c3cccc(SC)c3)C2)c(=O)[nH]c1=O (stereo not drawn) | 14.4 |
| COc1ccc(C(=O)CN2C(=O)NC3(CCc4ccccc43)C2=O)cc1 (stereo not drawn) | -0.107 |
| Cc1cc(S(=O)(=O)NCc2ccco2)c(C)s1 | 12 |
| CCOC(=O)C1CCCN(c2c(C(=O)c3ccccc3)cnc3ccc(OC)cc23)C1 (stereo not drawn) | -37.5 |
| O=C(c1ccc2nccnc2c1)N1CCN(Cc2ccc3c(c2)OCO3)CC1 | -7.14 |
| O=C(NCC1CCN(Cc2ccccc2Cl)CC1)Nc1ccccc1F | -44.7 |
| Cc1cc(C(=O)N2CCCC(N3CCN(c4ccccc4C)CC3)C2)n(C)n1 (stereo not drawn) | -88.8 |
| CCN(CC)C(=O)CSc1nc2ccc(NC(=O)CSc3nnc(N)s3)cc2s1 | 12.8 |
| O=C(N1CCCCC1)N1CCN(C(=O)N2CCCCC2)CC1 | 24.1 |
| Cc1ccc([N+](=O)[O-])c(OCc2ncc(Cl)n2C)c1 | 10.3 |
| CC1CN(CCCOc2ccc([N+](=O)[O-])cc2)CC(C)O1.O=C(O)C(=O)O (stereo not drawn) | -71.6 |
| C=C(C)CCC1(C)NC(=O)N(c2ccccc2)N1 (stereo not drawn) | -4.03 |
| CNCC(O)c1cccc(OC(=O)c2ccccc2C)c1.Cl (stereo not drawn) | -9.69 |
| Nc1cccnc1Oc1ccc(F)cc1 | 7.17 |
| COc1ccccc1NS(=O)(=O)c1cc(NC(=O)c2sccc2C)ccc1N1CCOCC1 | -7.07 |
| O=C(CN1CCN(c2cccc(Cl)c2)CC1)NCc1ccccc1 | -15.5 |
| CCCC(NC(=O)COc1cc2c(c3oc(=O)c(C)c(C)c13)CCC(C)(C)O2)C(=O)O (stereo not drawn) | 17.4 |
| COc1ccc(C)c2sc(=NC(=O)c3cccc(N4C(=O)CCC4=O)c3)n(C)c12 | -2.08 |
| O=C(Nc1ccc(NC(=O)c2ccco2)c(Cl)c1)c1cccc([N+](=O)[O-])c1 | 26.7 |

| SMILES | hERG current change (%, negative = inhibition) at 10uM [%] |
| --- | --- |
| CC(OC(=O)C1CCN(S(=O)(=O)c2ccc3c(c2)OCCO3)CC1)C(=O)N(C)c1ccccc1 (stereo not drawn) | -25 |
| C/C(=N\NC(=O)CCC(=O)O)c1c(-c2ccccc2)c2cc(Br)ccc2[nH]c1=O | 6.72 |
| CCC(C)Sc1nc2c(cnn2-c2ccc(C)cc2)c(=O)[nH]1 (stereo not drawn) | 10.2 |
| CSc1nc(C)cc(Oc2ccc(=O)n(C)n2)n1 | 4.45 |
| C/C(=N\NC(=O)c1sccc1C)c1cccnc1 | 18.9 |
| Cc1cc(NC(=O)CSc2nc3c(sc4ccccc43)c(=O)n2CCCN2CCOCC2)n[nH]1 | 2 |
| COc1ccc(C(=O)C2CCN(C(=O)c3ccc(OC)cc3)CC2)cc1 | -77.1 |
| Cc1nn(Cc2c(Cl)cccc2Cl)c(C)c1NC(=O)/C=C/c1cnn(C)c1C | 8.85 |
| CCCNC(=O)c1nn2cc(Br)cnc2c1Cl | -73.2 |
| O=c1[nH]c2ccccc2n1CCCSc1cnc2ccccc2n1 | -16.8 |
| Cn1c(Sc2nc3ccccc3n2C)nc2ccccc21 | -22.1 |
| Cc1ccc(S(=O)(=O)NCCC(=O)NCC(=O)Nc2c(C)cccc2C)cc1C | -3.41 |
| O=C(Nc1cccc(-n2cnnn2)c1)c1ccncc1 | -23.9 |
| COc1ccc(NS(=O)(=O)c2ccc(NS(=O)(=O)c3cccs3)cc2)c(OC)c1 | -2.15 |
| CC1(C)CC(=O)C2=C(C1)Nc1ccccc1NC2c1ccccn1 (stereo not drawn) | 3.39 |
| COc1cc2c(cc1OC)CN(CC(=O)Nc1ccc3c(c1)OC(F)(F)O3)CC2 | -14.3 |
| CC(C)(C)[C@H]1C=C(C(=O)NCc2ccccc2)O[C@@H](OCc2ccc(CO)cc2)C1 | -12.9 |
| CC1(C)Cc2ccccc2-c2nc(CN3CCOCC3)[nH]c(=O)c21 | -4.72 |
| COCCSc1ccccc1C(=O)Nc1cc(C)cc(C)c1 | 8.71 |
